# According to the supplement of paper PMC8728848:
# The list shows a part of the results.
# B1: AT1G15820(NC) (Arabidopsis thaliana) (protein)
# chain: MAMAVSGAVLSGLGSSFLTGGKRGATALASGVGDAIAPFSFGSLLGTQLLLMGWVESKRWVDFFNPDSQSVEWATPWSKTAENFANYTGDQGYPGGRFFDPLGLAGKNRDGVYEPDFEKLERLKLAEIKHSRLAMVAMLIFYFEAGQGKTPLGALGL
# Key:
# Assay in all cases: glycan array binding signal (z-score within array); higher = stronger binding
# Conditions in all cases: glycan notation: IUPAC condensed, linker removed
# [1] = biological target: Gal(b1-4)GlcNAc(b1-3)Gal(b1-4)GlcNAc(b1-6)[Gal(b1-3)]GalNAc
# Procedure, shortened: (§1)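 Arrays were curated from the Consortium for Functional Glycomics database, 3228 in total, and kept only where the protein sequence was available. Binding is expressed as a within-array Z-score. This score was averaged across arrays of the same protein sequence at different concentrations or buffers and across linkers, and negative values can be read as non-binding.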
# [2] = biological target: Gal(b1-4)GlcNAc(b1-3)Gal(b1-4)[Fuc(a1-3)]GlcNAc(b1-3)Gal(b1-4)[Fuc(a1-3)]GlcNAc
# Procedure, shortened: as §1
# [3] = biological target: Gal(b1-4)GlcNAc(b1-3)GalNAc
# Procedure, shortened: as §1
# [4] = biological target: Gal(b1-4)GlcNAc(b1-3)[Fuc(a1-3)GlcNAc(b1-6)]Gal(b1-4)Glc
# Procedure, shortened: as §1
# [5] = biological target: Gal(b1-4)GlcNAc(b1-3)[Gal(b1-4)GlcNAc(b1-6)]Gal(b1-4)GlcNAc
# Procedure, shortened: as §1
# [6] = biological target: Gal(b1-4)GlcNAc(b1-3)[GlcNAc(b1-6)]Gal(b1-4)GlcNAc
# Procedure, shortened: as §1
# [7] = biological target: Gal(b1-4)GlcNAc(b1-6)Gal(b1-4)GlcNAc
# Procedure, shortened: as §1
# [8] = biological target: Gal(b1-4)GlcNAc(b1-6)GalNAc
# Procedure, shortened: as §1
# [9] = biological target: Gal(b1-4)GlcNAc(b1-6)[Gal(b1-3)]GalNAc
# Procedure, shortened: as §1
# [10] = biological target: Gal(b1-4)GlcNAc(b1-6)[Gal(b1-4)GlcNAc(b1-3)]GalNAc
# Procedure, shortened: as §1
# Gal(b1-4)GlcNAc6P = biological target: Gal(b1-4)GlcNAc6P
# Procedure, shortened: as §1
# Gal(b1-6)Gal = biological target: Gal(b1-6)Gal
# Procedure, shortened: as §1
# Gal3S(b1-3)GalNAc = biological target: Gal3S(b1-3)GalNAc
# Procedure, shortened: as §1
# Gal3S(b1-3)GlcNAc = biological target: Gal3S(b1-3)GlcNAc
# Procedure, shortened: as §1
# [11] = biological target: Gal3S(b1-3)[Fuc(a1-4)]GlcNAc
# Procedure, shortened: as §1
# Gal3S(b1-4)Glc = biological target: Gal3S(b1-4)Glc
# Procedure, shortened: as §1
# Gal3S(b1-4)Glc6S = biological target: Gal3S(b1-4)Glc6S
# Procedure, shortened: as §1
# Gal3S(b1-4)GlcNAc = biological target: Gal3S(b1-4)GlcNAc
# Procedure, shortened: as §1
# [12] = biological target: Gal3S(b1-4)[Fuc(a1-3)]Glc6S
# Procedure, shortened: as §1
# [13] = biological target: Gal3S(b1-4)[Fuc(a1-3)]GlcNAc
# Procedure, shortened: as §1
# [14] = biological target: Gal3S(b1-4)[Fuc(a1-3)]GlcNAc6S
# Procedure, shortened: as §1
# Gal3S4S(b1-4)GlcNAc = biological target: Gal3S4S(b1-4)GlcNAc
# Procedure, shortened: as §1
# Gal3S6S(b1-4)GlcNAc = biological target: Gal3S6S(b1-4)GlcNAc
# Procedure, shortened: as §1
# Gal3S6S(b1-4)GlcNAc6S = biological target: Gal3S6S(b1-4)GlcNAc6S
# Procedure, shortened: as §1
# Gal4S(b1-4)GlcNAc = biological target: Gal4S(b1-4)GlcNAc
# Procedure, shortened: as §1
# Gal4S6S(b1-4)GlcNAc = biological target: Gal4S6S(b1-4)GlcNAc
# Procedure, shortened: as §1
# Gal6P(b1-4)GlcNAc = biological target: Gal6P(b1-4)GlcNAc
# Procedure, shortened: as §1
# Gal6S(b1-3)GlcNAc = biological target: Gal6S(b1-3)GlcNAc
# Procedure, shortened: as §1
# Gal6S(b1-3)GlcNAc6S = biological target: Gal6S(b1-3)GlcNAc6S
# Procedure, shortened: as §1
# Gal6S(b1-4)Glc = biological target: Gal6S(b1-4)Glc
# Procedure, shortened: as §1
# Gal6S(b1-4)Glc6S = biological target: Gal6S(b1-4)Glc6S
# Procedure, shortened: as §1
# Gal6S(b1-4)GlcNAc = biological target: Gal6S(b1-4)GlcNAc
# Procedure, shortened: as §1
# Gal6S(b1-4)GlcNAc6S = biological target: Gal6S(b1-4)GlcNAc6S
# Procedure, shortened: as §1
# GalNAc(a1-3)Gal = biological target: GalNAc(a1-3)Gal
# Procedure, shortened: as §1
# GalNAc(a1-3)GalNAc = biological target: GalNAc(a1-3)GalNAc
# Procedure, shortened: as §1
# [15] = biological target: GalNAc(a1-3)GalNAc(b1-3)Gal(a1-4)Gal(b1-4)Glc
# Procedure, shortened: as §1
# [16] = biological target: GalNAc(a1-3)GalNAc(b1-3)Gal(a1-4)Gal(b1-4)GlcNAc
# Procedure, shortened: as §1
# GalNAc(b1-3)Gal = biological target: GalNAc(b1-3)Gal
# Procedure, shortened: as §1
# [17] = biological target: GalNAc(b1-3)Gal(a1-4)Gal(b1-4)GlcNAc
# Procedure, shortened: as §1
# [18] = biological target: GalNAc(b1-3)Gal(a1-4)Gal(b1-4)GlcNAc(b1-3)Gal(b1-4)Glc
# Procedure, shortened: as §1
# [19] = biological target: GalNAc(b1-3)Gal(a1-6)Gal(b1-4)Glc
# Procedure, shortened: as §1
# GalNAc(b1-3)GalNAc = biological target: GalNAc(b1-3)GalNAc
# Procedure, shortened: as §1
# GalNAc(b1-3)GlcNAc = biological target: GalNAc(b1-3)GlcNAc
# Procedure, shortened: as §1
# GalNAc(b1-4)Gal(b1-4)Glc = biological target: GalNAc(b1-4)Gal(b1-4)Glc
# Procedure, shortened: as §1
# GalNAc(b1-4)GlcNAc = biological target: GalNAc(b1-4)GlcNAc
# Procedure, shortened: as §1
binder,measurement,setting,value
B1,glycan array binding signal (z-score),[1],0.544
same,glycan array binding signal (z-score),[2],-0.266
same,glycan array binding signal (z-score),[3],-0.348
same,glycan array binding signal (z-score),[4],-0.289
same,glycan array binding signal (z-score),[5],-0.416
same,glycan array binding signal (z-score),[6],-0.29
same,glycan array binding signal (z-score),[7],-0.003
same,glycan array binding signal (z-score),[8],0.644
same,glycan array binding signal (z-score),[9],0.249
same,glycan array binding signal (z-score),[10],0.457
same,glycan array binding signal (z-score),Gal(b1-4)GlcNAc6P,-0.42
same,glycan array binding signal (z-score),Gal(b1-6)Gal,-0.3
same,glycan array binding signal (z-score),Gal3S(b1-3)GalNAc,0.95
same,glycan array binding signal (z-score),Gal3S(b1-3)GlcNAc,0.265
same,glycan array binding signal (z-score),[11],-0.133
same,glycan array binding signal (z-score),Gal3S(b1-4)Glc,0.329
same,glycan array binding signal (z-score),Gal3S(b1-4)Glc6S,0.089
same,glycan array binding signal (z-score),Gal3S(b1-4)GlcNAc,0.198
same,glycan array binding signal (z-score),[12],0.578
same,glycan array binding signal (z-score),[13],-0.539
same,glycan array binding signal (z-score),[14],0.071
same,glycan array binding signal (z-score),Gal3S4S(b1-4)GlcNAc,1.45
same,glycan array binding signal (z-score),Gal3S6S(b1-4)GlcNAc,0.403
same,glycan array binding signal (z-score),Gal3S6S(b1-4)GlcNAc6S,1
same,glycan array binding signal (z-score),Gal4S(b1-4)GlcNAc,0.014
same,glycan array binding signal (z-score),Gal4S6S(b1-4)GlcNAc,-0.442
same,glycan array binding signal (z-score),Gal6P(b1-4)GlcNAc,-0.514
same,glycan array binding signal (z-score),Gal6S(b1-3)GlcNAc,-0.241
same,glycan array binding signal (z-score),Gal6S(b1-3)GlcNAc6S,-0.611
same,glycan array binding signal (z-score),Gal6S(b1-4)Glc,-0.086
same,glycan array binding signal (z-score),Gal6S(b1-4)Glc6S,-0.425
same,glycan array binding signal (z-score),Gal6S(b1-4)GlcNAc,-0.34
same,glycan array binding signal (z-score),Gal6S(b1-4)GlcNAc6S,-0.036
same,glycan array binding signal (z-score),GalNAc(a1-3)Gal,-0.448
same,glycan array binding signal (z-score),GalNAc(a1-3)GalNAc,-0.162
same,glycan array binding signal (z-score),[15],-0.146
same,glycan array binding signal (z-score),[16],-0.435
same,glycan array binding signal (z-score),GalNAc(b1-3)Gal,-0.341
same,glycan array binding signal (z-score),[17],1.78
same,glycan array binding signal (z-score),[18],-0.057
same,glycan array binding signal (z-score),[19],-0.443
same,glycan array binding signal (z-score),GalNAc(b1-3)GalNAc,-0.379
same,glycan array binding signal (z-score),GalNAc(b1-3)GlcNAc,-0.221
same,glycan array binding signal (z-score),GalNAc(b1-4)Gal(b1-4)Glc,-0.588
same,glycan array binding signal (z-score),GalNAc(b1-4)GlcNAc,7.2
